PubChem BioAssay AID1030 (National Center for Advancing Translational Sciences (NCATS), 2008)
Among all 220,000 compounds or so, about 16,000 (7.3%) were called active. Inconclusive results, whose numbers are uncertain, are shown with a selection of clear calls. Calls follow the shape of the dose curve; as a rule, active = well fitted inhibition curve with a large enough effect (not every such curve was filed as active); inconclusive = small, poorly fitted or top-dose-only effect, or another doubt; inactive = no such curve, though single readings can be large or run the other way. No potency is given beside an inconclusive call; the fits are too rough.

molecular target: Aldehyde dehydrogenase 1A1 (Homo sapiens) (UniProt P00352); test: qHTS Assay for Inhibitors of Aldehyde Dehydrogenase 1 (ALDH1A1); settings: Purified ALDH1A1, NADH fluorescence, propionaldehyde substrate; series mostly up to 75.3 µM
Potency is read from the fitted curve at half-maximal effect; tags tell the direction and shape of the fitted curve.

UniProt P00352, sequence (P00352 whole entry, looked up): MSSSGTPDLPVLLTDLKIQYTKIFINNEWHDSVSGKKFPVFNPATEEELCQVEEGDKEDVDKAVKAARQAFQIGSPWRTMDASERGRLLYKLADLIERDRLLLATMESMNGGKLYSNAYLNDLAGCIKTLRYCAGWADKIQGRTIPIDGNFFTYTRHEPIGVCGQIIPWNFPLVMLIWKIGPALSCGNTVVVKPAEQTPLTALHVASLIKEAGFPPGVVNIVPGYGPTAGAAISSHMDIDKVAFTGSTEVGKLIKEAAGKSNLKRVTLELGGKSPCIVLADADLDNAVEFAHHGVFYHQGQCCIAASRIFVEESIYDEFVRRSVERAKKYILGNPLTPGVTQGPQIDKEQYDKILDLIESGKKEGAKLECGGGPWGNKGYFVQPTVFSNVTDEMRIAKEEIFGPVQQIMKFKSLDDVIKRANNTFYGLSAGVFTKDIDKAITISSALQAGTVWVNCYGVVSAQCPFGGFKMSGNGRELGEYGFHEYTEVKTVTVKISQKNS

SMILES | Potency
CCSC1=C(C#N)C(c2cccc(Br)c2)CC(=O)N1 (stereo not given) | inconclusive [inhibitor, single point]
CC(C)(C)NCc1cc(Br)ccc1OCc1cccs1 | inactive
O=C(N/N=C/c1ccc2c(c1)OCO2)C(O)c1ccccc1 (stereo not given) | inconclusive [inhibitor, single point]
COC(=O)C(CC(=O)c1ccc(Br)cc1)n1ccnc1 (stereo not given) | active: 0.447 µM
S=C(NCc1ccco1)N1CCN(c2ccccc2Cl)CC1 | inconclusive [inhibitor, single point]
CCc1ccc(OCC(=O)NC(C)C)cc1 | inactive
C[C@@H]1C[C@H](OC(=O)[C@@H](O)c2ccccc2)CC(C)(C)N1C | inactive
CC(C)c1cc(/C=C(\C#N)C(=O)NCCCc2ccccc2)cc(C(C)C)c1O | inactive
CCN(C(=O)c1cc2cc3ccc(C)cc3nc2o1)c1ccc(OC)cc1 | inconclusive [inhibitor, single point]
Cc1ccc(S(=O)(=O)N(C)CC(=O)O/N=C(\N)c2cccc([N+](=O)[O-])c2)cc1 | inconclusive [inhibitor, full curve, poor fit]
CSc1nsc(SCC(=O)Nc2ccc(C(C)=O)cc2)n1 | inconclusive [inhibitor, single point]
COc1ccc(-n2c(SCC(=O)NCCCN3CCCC3=O)nnc2C(C)N2CCCCC2)cc1 (stereo not given) | inactive
Cc1csc(NC(=O)c2cc3c(s2)CCCCC3)n1 | inconclusive [inhibitor, partial curve]
Cc1ccc(N=Nc2c(C)[nH]n(C(N)=S)c2=O)cc1C | inconclusive [inhibitor, partial curve]
COc1cc(C(=O)Nc2ccc3c(c2)OCCO3)ccc1OC(C)C | inconclusive [inhibitor, single point]
Cc1ccc(C(=O)Nc2cccc(C(=O)NCc3ccccc3)c2)o1 | inactive
CC(C)Cn1c(N)c(C(=O)COC(=O)c2cnc(Cl)c(Cl)c2)c(=O)n(C)c1=O | active: 0.447 µM
O=C(CNC(=O)C1CCCCC1)Nc1ccc(F)c(Cl)c1 | inconclusive [inhibitor, single point]
COc1ccc(NC(=S)N2CCN(CCN=CC3=C(O)CC(c4ccccc4)CC3=O)CC2)cc1 (stereo not given) | inconclusive [inhibitor, single point]
Cc1c(-c2ccccc2)cn2c1-c1ccc(C)n1CC2 | inconclusive [inhibitor, single point]
Fc1cccc(Cc2noc(CN3CCC(c4ccncc4)CC3)n2)c1 | inactive
CN(C)C(=O)[C@]1(C)C[C@H]1[C@H](NC(=O)CNC(=O)[C@@H]1CCCN1C(=O)[C@]1(C)C[C@H]1[C@H](NC(=O)OCc1ccccc1)c1ccccc1)c1ccccc1 | inconclusive [inhibitor, single point]
CC(C)=CCC/C(C)=C/CO/N=C1/[C@H]2O[C@@H]2[C@@H](O)[C@H]2[C@H]1CCn1c(=O)n(-c3ccccc3)c(=O)n12 | inconclusive [inhibitor, single point]

SMILES | Potency
COc1ccc2c(CN(C)c3ccccc3)cc(=O)oc2c1 | inconclusive [inhibitor, partial curve]
COc1cc(OC)c(-c2nnc3n(CCc4ccccc4)c(=O)c4ccccc4n23)cc1OC | inconclusive [inhibitor, full curve, poor fit]
CCN(CC)CCCN1C(=O)C(=O)/C(=C(/O)c2ccc(Cl)cc2)C1c1ccccn1 (stereo not given) | inconclusive [inhibitor, single point]
O=C(COc1cccnc1[N+](=O)[O-])NCCc1ccc(F)cc1 | inactive
O=C(NCCc1ccccn1)c1cc(-c2ccc(Cl)cc2)nc2ccccc12 | inactive
O=C1OCCN1C(=O)[C@H]1[C@H](c2ccc(F)cc2)C(c2ccccc2)=NN1c1ccccc1 | inconclusive [inhibitor, single point]
O=C(NCc1ccc2c(c1)OCO2)c1ccc2c(c1)OCCO2 | inconclusive [inhibitor, single point]
COc1ccc(-c2cn3cc(C(F)(F)F)cc(Cl)c3n2)cc1 | inconclusive [inhibitor, single point]
O=C(CC(Nc1ccc(F)cc1)C(=O)OCC(=O)c1cccs1)c1ccccc1 (stereo not given) | active: 11.2 µM
COC(=O)C(C)N(C(=O)c1cccc(Cl)c1)c1c(C)cccc1C (stereo not given) | inconclusive [inhibitor, partial curve]
CCCC(=O)Nc1c(-c2ccc(OC)cc2)c(=O)c2ccccc2n1C | inconclusive [inhibitor, partial curve]
Cc1cc[n+](-c2nc3ccccc3nc2C(=C=[N-])C#N)cc1 | inactive
CCCN1C(=O)/C(=C/c2nc3ccccc3c(=O)[nH]2)c2ccccc21 | active: 2.51 µM
COc1ccccc1-n1cnnc1SCC(=O)Nc1cccc(S(=O)(=O)N2CCCCC2)c1 | active: 0.631 µM
Cc1nn(-c2ccccc2)nc1C(=O)Oc1cc(C(F)(F)F)nn1-c1ccccc1 | inconclusive [inhibitor, single point]
COc1ccc(C2C3=C(CC(C)(C)CC3=O)Nc3c2c(=O)[nH]c(=O)n3Cc2ccccc2)cc1OC (stereo not given) | inactive
COc1ccc(-c2nnc(SC(C)C(=O)Nc3cccc(Cl)c3)o2)cc1 (stereo not given) | inconclusive [inhibitor, single point]
CO/N=C/C(=N\Nc1ccc(OC)cc1)C(=O)c1ccc(OC)cc1 | inactive
CCn1c(-c2csc(-c3ccccc3)n2)n[nH]c1=S | inconclusive [inhibitor, full curve]
CC(C)(C)NC(=O)C1CCCN(S(=O)(=O)c2cccc3cccnc23)C1 (stereo not given) | inactive
CCCCC(CC)CNC(=O)C(Cc1ccccc1)NS(=O)(=O)c1ccc2c(c1)CCC(=O)N2 (stereo not given) | inactive
Cc1ccc(Nc2ncnc3c2oc2ccccc23)cc1 | inconclusive [inhibitor, single point]
